Source: PubChem BioAssay AID1030 (National Center for Advancing Translational Sciences (NCATS), 2008)
About 16,000 (7.3%) of roughly 220,000 compounds were called active. The shares of active, inactive and inconclusive entries below differ from those in the screen. The call rests on the fitted dose curve; in most records, active means well fitted inhibition curve with a large enough effect (not every such curve was filed as active); inconclusive means small, poorly fitted or top-dose-only effect, or another doubt; inactive means no such curve, though single readings can be large or run the other way. A potency beside an inconclusive call is a rough fit, not a confirmed value.

These compounds were tested against Aldehyde dehydrogenase 1A1 (Homo sapiens) (UniProt P00352) (assay: qHTS Assay for Inhibitors of Aldehyde Dehydrogenase 1 (ALDH1A1)). Conditions: Purified ALDH1A1, NADH fluorescence, propionaldehyde substrate; series mostly up to 75.3 µM.
Sequence of UniProt P00352 (P00352 whole entry, looked up): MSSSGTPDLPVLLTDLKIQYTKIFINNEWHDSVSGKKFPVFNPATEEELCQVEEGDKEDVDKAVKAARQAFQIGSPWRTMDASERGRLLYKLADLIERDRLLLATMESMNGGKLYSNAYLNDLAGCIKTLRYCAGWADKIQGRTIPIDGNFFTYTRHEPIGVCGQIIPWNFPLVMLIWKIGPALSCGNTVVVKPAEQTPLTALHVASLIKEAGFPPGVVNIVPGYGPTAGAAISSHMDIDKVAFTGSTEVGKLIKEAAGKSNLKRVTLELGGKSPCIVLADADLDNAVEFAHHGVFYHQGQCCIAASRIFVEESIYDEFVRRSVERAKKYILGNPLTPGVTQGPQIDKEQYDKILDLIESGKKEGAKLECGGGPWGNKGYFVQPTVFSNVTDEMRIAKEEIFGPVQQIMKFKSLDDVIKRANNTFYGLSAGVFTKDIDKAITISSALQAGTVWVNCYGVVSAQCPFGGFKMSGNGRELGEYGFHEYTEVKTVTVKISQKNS
Potency means the concentration at half of the fitted maximal effect; tags describe the fitted curve by direction and shape.
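Wherever activity, negative = inhibition is given: plate controls were no enzyme wells and a reference inhibitor.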

Potency, active:
COc1ccc(-n2nnnc2SCC(=O)N2CCCc3ccccc32)cc1OC 25.1 µM, Fc1ccccc1-n1[nH]nnc1=S 2.24 µM, O=C1C(c2[nH]c3ccccc3c2O)=Nc2ccccc21 15.8 µM, CN(C(=O)Cn1nnc(-c2cccc(C(F)(F)F)c2)n1)C1CCCCC1 35.5 µM, O=C1NNC(=O)C2C3C=CC(C4CC34)C12 (centres undefined) 25.1 µM, Cc1ccccc1Nc1nc(-c2sc(NC(=O)c3ccco3)nc2C)cs1 20 µM, CC(C)(C)C1CCC(=NNS(=O)(=O)c2ccc(Br)cc2)CC1 (centres undefined) 1.41 µM, O=C(/C=C/c1ccc(OCc2ccccc2)c(OCc2ccccc2)c1)c1cccnc1 7.08 µM, COc1cc(OC)c(-c2c3cc(O)c(=O)cc-3oc3cc(O)c(O)cc23)cc1OC 10 µM

Potency, inactive:
CCCCCCCCCC[Si](C)(C)CCC(=O)NC(Cc1ccc(C)cc1)c1ccccc1 (centres undefined), CC1CCN(Cc2c(C(=O)O)nnn2-c2nonc2N)CC1, Cc1ccc(-n2c(Cn3nc(C(F)F)cc3C(F)F)n[nH]c2=S)cc1, Cc1cc(NC(=O)c2cccc(Oc3ccccc3)c2)n[nH]1, Oc1ccc(Br)cc1-c1cc(-c2ccccc2F)[nH]n1, COC(=O)COc1ccc(S(=O)(=O)N2CCN(c3ccc(F)cc3)CC2)cc1, COc1ccc(-c2csc(NC(=S)NC(=O)c3cccs3)n2)cc1Br, Cc1cc(=O)[nH]c(N/N=C/c2cn(CCC#N)nc2-c2ccccc2)n1, CCCNC(=O)Cc1c(OC)ccc2cc(Br)ccc12, C[C@H]([C@@H](N)C(=O)N[C@@H](C(=O)O)[C@@H]1O[C@H](n2ccc(=O)[nH]c2=O)[C@@H](O)[C@H]1O)[C@@H](O)c1ccc(O)cn1, O=S(=O)(Nc1cccc(-c2nnco2)c1)c1ccc(F)cc1F, O=C(c1cccs1)n1nc(-c2cccnc2)nc1NCc1ccco1, COc1ccc(-c2c(C)cc3oc(=O)cc(-c4ccccc4)c3c2C)cc1F, O=C(NC1CCCCC1)N(C1=NCCCCC1)c1ccc(Br)cc1, CN1CC[C@@]23c4ccccc4N[C@H]1[C@]21CCN(C)[C@@H]3Nc2ccccc21, O=C(NCc1cccnc1)c1cc(-c2cccs2)on1, CCC(C)N(CCNC(=O)CC1Oc2ccc(C)cc2NC1=O)C1CCCCC1 (centres undefined)

Potency, inconclusive:
c1ccc(OCCSc2nnnn2C2CCCCC2)cc1 25.1 µM [inhibitor, partial curve], COc1ccc([N+](=O)[O-])cc1NC(=O)CSc1nc(C)cc(C)n1 39.8 µM [inhibitor, single point], Cc1ccc2sc(NNC(=O)C3COc4ccccc4O3)nc2c1C (centres undefined) 39.8 µM [inhibitor, single point], CC(/C=N/NC(=O)Cc1cccs1)=C\c1ccco1 35.5 µM [inhibitor, single point], O=C(Nc1ccon1)c1csc2ccccc12 35.5 µM [inhibitor, single point], CC(C)(Oc1ccc(Cl)cc1)C(=O)Nc1ncccn1 39.8 µM [inhibitor, single point], CN(Cc1ccco1)c1ncnc2ccc(-c3ccc4c(c3)OCO4)cc12 28.2 µM [inhibitor, single point], Cc1cccc(CNc2ncncc2-c2ccccc2C(F)(F)F)c1 39.8 µM [inhibitor, single point], CCCCNC(=O)c1c[nH]c2ccc(S(=O)(=O)Nc3ccc(OCC)cc3)cc2c1=O 31.6 µM [inhibitor, partial curve], Cc1ccc(Nc2nnc(SC/C(O)=C(\C#N)c3nc4ccccc4[nH]3)s2)c(C)c1 35.5 µM [inhibitor, single point], CCC1CCCCN1C(=O)CNCC1CCCO1 (centres undefined) 37.7 µM [inhibitor, single point], CC(C)(C)NC(=O)NC(=O)COc1ccc(Br)cc1Br 39.8 µM [inhibitor, single point], C=CCNC(=O)CNS(=O)(=O)c1ccc(F)cc1 39.8 µM [inhibitor, single point], CCOC(=O)C1=C(N)OC2=C(C(=O)CC(C)(C)C2)C1c1ccccc1OCC#N (centres undefined) 31.6 µM [inhibitor, single point], COc1ccc2cc(C(=O)Nc3ccccc3)sc(=O)c2c1OC 39.8 µM [inhibitor, single point], O=C(c1cc2cc(Br)cc(Br)c2oc1=O)N1CCCC1 31.6 µM [inhibitor, partial curve], O=C(c1cccc(F)c1)N1CCC2(CC1)CN(c1cccc(-c3ccccc3)c1)C2 25.1 µM [inhibitor, partial curve], O=C(CSCc1c(F)cccc1Cl)NCCSCc1ccco1 39.8 µM [inhibitor, single point], CC(C)(C)c1nnc(NC(=O)c2cc(-c3ccccc3)nc3ccccc23)s1 22.4 µM [inhibitor, partial curve], CCOC(=O)CSC1=Nc2ccccc2C2=NC(CC(=O)NCc3ccc(OC)cc3)C(=O)N12 (centres undefined) 4.74 µM [inhibitor, partial curve], Cc1cc(NC(=O)CCN2C(=O)C3C4C=CC(C4)C3C2=O)ccc1Br (centres undefined) 39.8 µM [inhibitor, single point], CCCCn1c(/C=C/c2ccco2)nc2ccccc21 8.91 µM [inhibitor, partial curve]

activity, negative = inhibition, inactive:
COc1ccc(COC(=O)N/N=C2/C[C@@H](O)[C@@H](O)[C@@H]3[C@@H]4C(=O)N(c5cccc(Oc6ccccc6)c5)C(=O)[C@H]4CC[C@@H]23)cc1 -1.99% [at 13.5 µM]
